The other results are listed elsewhere or left out.
Legend:
Assay in all cases: glycan array binding signal (z-score within array); higher = stronger binding
Details in all cases: glycan notation: IUPAC condensed, linker removed
[1] = molecular target: Fuc(a1-2)[Gal(a1-3)]Gal(b1-4)[Fuc(a1-3)]GlcNAc(b1-3)GalNAc
Method in brief: (§1)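 From the Consortium for Functional Glycomics database, 3228 arrays were curated, keeping only those whose protein sequence was available. Binding is given as a within-array Z-score averaged across arrays sharing a protein sequence and across linkers. Negative Z-scores can be read as non-binding.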

[2] = molecular target: Fuc(a1-2)[Gal(a1-4)]Gal(b1-4)GlcNAc
Method in brief: as §1

[3] = molecular target: Fuc(a1-2)[GalNAc(a1-3)]Gal
Method in brief: as §1

[4] = molecular target: Fuc(a1-2)[GalNAc(a1-3)]Gal(b1-3)GalNAc(a1-3)[Fuc(a1-2)]Gal(b1-4)GlcNAc
Method in brief: as §1

[5] = molecular target: Fuc(a1-2)[GalNAc(a1-3)]Gal(b1-3)GalNAc(b1-3)Gal(a1-4)Gal(b1-4)Glc
Method in brief: as §1

[6] = molecular target: Fuc(a1-2)[GalNAc(a1-3)]Gal(b1-3)GlcNAc
Method in brief: as §1

[7] = molecular target: Fuc(a1-2)[GalNAc(a1-3)]Gal(b1-3)GlcNAc(b1-2)Man(a1-3)[Fuc(a1-2)[GalNAc(a1-3)]Gal(b1-3)GlcNAc(b1-2)Man(a1-6)]Man(b1-4)GlcNAc(b1-4)GlcNAc
Method in brief: as §1

[8] = molecular target: Fuc(a1-2)[GalNAc(a1-3)]Gal(b1-3)GlcNAc(b1-2)Man(a1-3)[Fuc(a1-2)[GalNAc(a1-3)]Gal(b1-3)GlcNAc(b1-2)Man(a1-6)]Man(b1-4)GlcNAc(b1-4)[Fuc(a1-6)]GlcNAc
Method in brief: as §1

[9] = molecular target: Fuc(a1-2)[GalNAc(a1-3)]Gal(b1-3)GlcNAc(b1-3)GalNAc
Method in brief: as §1

[10] = molecular target: Fuc(a1-2)[GalNAc(a1-3)]Gal(b1-3)GlcNAc(b1-6)GalNAc
Method in brief: as §1

[11] = molecular target: Fuc(a1-2)[GalNAc(a1-3)]Gal(b1-4)Glc
Method in brief: as §1

[12] = molecular target: Fuc(a1-2)[GalNAc(a1-3)]Gal(b1-4)GlcNAc
Method in brief: as §1

[13] = molecular target: Fuc(a1-2)[GalNAc(a1-3)]Gal(b1-4)GlcNAc(b1-2)Man
Method in brief: as §1

[14] = molecular target: Fuc(a1-2)[GalNAc(a1-3)]Gal(b1-4)GlcNAc(b1-2)Man(a1-3)[Fuc(a1-2)[GalNAc(a1-3)]Gal(b1-4)GlcNAc(b1-2)Man(a1-6)]Man(b1-4)GlcNAc(b1-4)GlcNAc
Method in brief: as §1

[15] = molecular target: Fuc(a1-2)[GalNAc(a1-3)]Gal(b1-4)GlcNAc(b1-2)Man(a1-3)[Fuc(a1-2)[GalNAc(a1-3)]Gal(b1-4)GlcNAc(b1-2)Man(a1-6)]Man(b1-4)GlcNAc(b1-4)[Fuc(a1-6)]GlcNAc
Method in brief: as §1

[16] = molecular target: Fuc(a1-2)[GalNAc(a1-3)]Gal(b1-4)GlcNAc(b1-3)Gal(b1-4)GlcNAc
Method in brief: as §1

[17] = molecular target: Fuc(a1-2)[GalNAc(a1-3)]Gal(b1-4)GlcNAc(b1-3)Gal(b1-4)GlcNAc(b1-3)Gal(b1-4)GlcNAc
Method in brief: as §1

[18] = molecular target: Fuc(a1-2)[GalNAc(a1-3)]Gal(b1-4)GlcNAc(b1-3)GalNAc
Method in brief: as §1

[19] = molecular target: Fuc(a1-2)[GalNAc(a1-3)]Gal(b1-4)GlcNAc(b1-3)[Fuc(a1-2)[GalNAc(a1-3)]Gal(b1-4)GlcNAc(b1-6)]GalNAc
Method in brief: as §1

[20] = molecular target: Fuc(a1-2)[GalNAc(a1-3)]Gal(b1-4)GlcNAc(b1-6)GalNAc
Method in brief: as §1

[21] = molecular target: Fuc(a1-2)[GalNAc(a1-3)]Gal(b1-4)[Fuc(a1-3)]GlcNAc
Method in brief: as §1

[22] = molecular target: Fuc(a1-2)[GalNAc(a1-3)]Gal(b1-4)[Fuc(a1-3)]GlcNAc(b1-3)GalNAc
Method in brief: as §1

[23] = molecular target: Fuc(a1-2)[GalNAc(a1-4)]Gal(b1-4)GlcNAc
Method in brief: as §1

[24] = molecular target: Fuc(a1-2)[GalNAc(b1-3)]Gal
Method in brief: as §1

Fuc(a1-3)GlcNAc = molecular target: Fuc(a1-3)GlcNAc
Method in brief: as §1

[25] = molecular target: Fuc(a1-3)[Gal(b1-4)]Glc6S
Method in brief: as §1

[26] = molecular target: Fuc(a1-3)[Gal(b1-4)]GlcNAc
Method in brief: as §1

[27] = molecular target: Fuc(a1-3)[Gal(b1-4)]GlcNAc(b1-2)Man
Method in brief: as §1

[28] = molecular target: Fuc(a1-3)[Gal(b1-4)]GlcNAc(b1-2)Man(a1-3)[Fuc(a1-3)[Gal(b1-4)]GlcNAc(b1-2)Man(a1-6)]Man(b1-4)GlcNAc(b1-4)GlcNAc
Method in brief: as §1

[29] = molecular target: Fuc(a1-3)[Gal(b1-4)]GlcNAc(b1-2)Man(a1-3)[Fuc(a1-3)[Gal(b1-4)]GlcNAc(b1-2)Man(a1-6)]Man(b1-4)GlcNAc(b1-4)[Fuc(a1-6)]GlcNAc
Method in brief: as §1

[30] = molecular target: Fuc(a1-3)[Gal(b1-4)]GlcNAc(b1-3)Gal(b1-3)[Fuc(a1-4)]GlcNAc
Method in brief: as §1

[31] = molecular target: Fuc(a1-3)[Gal(b1-4)]GlcNAc(b1-3)Gal(b1-4)[Fuc(a1-3)]GlcNAc
Method in brief: as §1

[32] = molecular target: Fuc(a1-3)[Gal(b1-4)]GlcNAc(b1-3)Gal(b1-4)[Fuc(a1-3)]GlcNAc(b1-3)Gal(b1-4)[Fuc(a1-3)]GlcNAc
Method in brief: as §1

[33] = molecular target: Fuc(a1-3)[Gal(b1-4)]GlcNAc(b1-3)GalNAc
Method in brief: as §1

[34] = molecular target: Fuc(a1-3)[Gal(b1-4)]GlcNAc(b1-6)GalNAc
Method in brief: as §1

[35] = molecular target: Fuc(a1-3)[Gal(b1-4)]GlcNAc(b1-6)[Gal(b1-3)GlcNAc(b1-3)]Gal(b1-4)Glc
Method in brief: as §1

[36] = molecular target: Fuc(a1-3)[Gal(b1-4)]GlcNAc6S
Method in brief: as §1

[37] = molecular target: Fuc(a1-3)[Gal3S(b1-4)]Glc
Method in brief: as §1

B1: Epa1to9 (Candida glabrata) (protein)
chain: MGSSHHHHHHSSGLVPRGSHMTSSNDISLASKDPTTFPLGCSPDITTPKKGLSMELYSYDFRKKGSYPCWDAAYLDPNYPRTGYKSHRLLAKVDGVTGNINFYYHATKGCTPQLGHLPASYNYPKPLTMTNFTMLLYGYFRPKVTGFHTFTISADDLLFVNFGAGNAFDCCRRDSSADHFGNYQAYAIWGSKTAKDELTVHLDAGVYYPIRLFYNNRDYHGALSFTFKTESNENTVSDFSEYFFSLDDTEEGCPGLISYD
glycan array binding signal (z-score) [1]: -0.309
glycan array binding signal (z-score) [2]: 1.18
glycan array binding signal (z-score) [3]: -0.349
glycan array binding signal (z-score) [4]: -0.324
glycan array binding signal (z-score) [5]: -0.349
glycan array binding signal (z-score) [6]: -0.346
glycan array binding signal (z-score) [7]: -0.345
glycan array binding signal (z-score) [8]: -0.354
glycan array binding signal (z-score) [9]: -0.289
glycan array binding signal (z-score) [10]: -0.341
glycan array binding signal (z-score) [11]: -0.351
glycan array binding signal (z-score) [12]: -0.351
glycan array binding signal (z-score) [13]: -0.356
glycan array binding signal (z-score) [14]: -0.318
glycan array binding signal (z-score) [15]: -0.341
glycan array binding signal (z-score) [16]: -0.339
glycan array binding signal (z-score) [17]: -0.296
glycan array binding signal (z-score) [18]: -0.347
glycan array binding signal (z-score) [19]: -0.271
glycan array binding signal (z-score) [20]: -0.266
glycan array binding signal (z-score) [21]: -0.318
glycan array binding signal (z-score) [22]: -0.324
glycan array binding signal (z-score) [23]: -0.347
glycan array binding signal (z-score) [24]: -0.355
glycan array binding signal (z-score) (Fuc(a1-3)GlcNAc): -0.354
glycan array binding signal (z-score) [25]: -0.207
glycan array binding signal (z-score) [26]: -0.328
glycan array binding signal (z-score) [27]: -0.308
glycan array binding signal (z-score) [28]: -0.354
glycan array binding signal (z-score) [29]: -0.275
glycan array binding signal (z-score) [30]: -0.328
glycan array binding signal (z-score) [31]: -0.309
glycan array binding signal (z-score) [32]: -0.261
glycan array binding signal (z-score) [33]: -0.293
glycan array binding signal (z-score) [34]: -0.272
glycan array binding signal (z-score) [35]: -0.326
glycan array binding signal (z-score) [36]: 0.08
glycan array binding signal (z-score) [37]: -0.309
